Laboratory results: PMC9687571, “Anti-Inflammatory Activity of Olive Oil Polyphenols—The Role of Oleacein and Its Metabolites” (Biomedicines, 2022)

Assays:
[1] = system: LPS-stimulated RAW 264.7 macrophages; assay: ●NO levels in cell culture medium (Griess reaction); format: cell-based, murine; conditions: for concentrations giving a significant reduction in ●NO levels in cell culture medium: 1 h pre-treatment, 23 h co-treatment with LPS 0.3 µg/mL; for reduction in ●NO levels: concentration range 12.5–25 µM
Protocol: The effect of compounds on ^●NO levels in culture medium of LPS-activated macrophages was determined by measuring the nitrites through the Griess reaction, as previously described. […] After 24 h, cells were pre-treated with non-toxic concentrations of compounds or media (control) for 1 h and then co-incubated with LPS solution (0.3 µg/mL) for an additional 23 h. […] The results were expressed as % of ^●NO production by cells exposed to LPS and correspond to the mean ± SEM of four independent assays, each performed in triplicate. Quercetin was used as the positive control.

[2] = system: LPS-stimulated RAW 264.7 macrophages; assay: L-citrulline levels in extracellular medium (diacetyl monoxime/antipyrine colorimetric method); format: cell-based, murine; conditions: for decrease in cellular production of L-citrulline (released during 3 h): highest tested concentration (100 µM), HBSS + 200 µM L-arginine
Protocol: (§1) L-citrulline was quantified by a colorimetric method that takes advantage of the ureido group-specific reaction with diacetyl monoxime/antipyrine in the presence of sulfuric acid, using cell assay conditions that avoid the interferences promoted by the serum proteins and pH indicator present in cell culture medium. […] Afterward, the culture medium was removed, cells were washed three times with HBSS before being incubated with HBSS supplemented with 200 µM of L-arginine (300 µL/well) for an additional 3 h. Then, the extracellular medium of each well was collected and used to assess the ^●NO and L-citrulline released by cells. 75 µL were used to quantify the ^●NO levels by using Griess reagent, as described above. For L-citrulline quantification, 250 µL extracellular medium were mixed with 1250 µL of chromogenic reactional solution (40% (v/v) of 79 mM diacetyl monoxime in 83 mM of acetic acid, 18% (v/v) of 47.8 mM antipyrine E in H2O and 42% (v/v) of 7.5 M sulfuric acid). […] Quercetin was used as the positive control.

[3] = system: LPS-stimulated RAW 264.7 macrophages; assay: ●NO levels in extracellular medium after 3 h in HBSS + L-arginine; format: cell-based, murine; conditions: highest tested concentration (100 µM), HBSS + 200 µM L-arginine
Protocol: as §1

[4] = system: non-activated RAW 264.7 macrophages; conditions: for effect on cell viability (MTT reduction): non-activated RAW 264.7, 24 h exposure, 0 to 100 µM

Structure (SMILES)	concentrations giving a significant reduction in ●NO levels in cell culture medium [1] [µM]	reduction in ●NO levels ([1]; p < 0.05)	decrease in cellular production of L-citrulline (released during 3 h) [2]	decrease in cellular production of ●NO (released during 3 h) [3]	concentrations exhibiting cell toxicity (significant decrease in cell viability) [4] [µM]	effect on amount of L-citrulline generated by LPS-stimulated macrophages ([2]; 12.5 µM)	effect on cell viability (MTT reduction) [4]	decrease in ●NO levels in cell culture medium ([1]; at 25 µM, p < 0.05)
CC(=O)OCCc1ccc(O)c(O)c1 [AcHyTy, hydroxytyrosol acetate]	≥ 12.5	up to 25%	~20%	~20%	≥ 50			
C/C=C(/C=O)[C@@H](CC=O)CC(=O)OCCc1ccc(O)c(O)c1 [oleacein]	≥ 12.5	up to 25%	about 50%	about 50%		significantly decreased	do not alter the viability	
OCCc1ccc(O)c(O)c1 [HyTy, hydroxytyrosol]	≥ 25	up to 25%	about 50%	about 50%			do not alter the viability	~ 20%
